Measured values reported in the supplement of paper PMC4967469.

Experiments:
Assay in all cases: Viability of human cancer cell lines after 72 h of drug (GDSC screen)
QL-X-138 = compound: C=CC(=O)Nc1cc(-n2c(=O)ccc3cnc4ccc(-c5cn[nH]c5)cc4c32)ccc1C [QL-X-138]; conditions: top dose 10.24 µM; top dose inferred
Experimental: (§1)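 Human cancer cell lines in 384-well plates, medium with 10% serum, drug for 72 h over a 256-fold dose range (nine 2-fold or five 4-fold steps up to the top dose). Adherent lines were fixed and stained with the nucleic acid dye Syto60, suspension lines read with resazurin; signal relative to control wells, capped at 0 and 100%. One two-parameter sigmoid per drug and line, fitted in a mixed model over all curves with the slope shared within a line.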

Thapsigargin = compound: C/C=C(/C)C(=O)O[C@H]1C(C)=C2[C@H]([C@@H]1OC(=O)CCCCCCC)[C@@](C)(OC(C)=O)C[C@H](OC(=O)CCC)[C@@]1(O)[C@H]2OC(=O)[C@@]1(C)O [Thapsigargin]; conditions: top dose 0.512 µM; top dose inferred
Experimental: as §1

Zibotentan = compound: COc1nc(C)cnc1NS(=O)(=O)c1cccnc1-c1ccc(-c2nnco2)cc1 [Zibotentan]; conditions: top dose 20 µM; top dose inferred
Experimental: as §1

CHIR-99021 = compound: Cc1cnc(-c2cnc(NCCNc3ccc(C#N)cn3)nc2-c2ccc(Cl)cc2Cl)[nH]1 [CHIR-99021]
Experimental: as §1

CMK = compound: Cc1ccc(-c2c(C(=O)CCl)n(CCCO)c3ncnc(N)c23)cc1 [CMK]; conditions: top dose 4 µM; top dose inferred
Experimental: as §1

CP466722 = compound: COc1cc2ncnc(-n3nc(-c4ccccn4)nc3N)c2cc1OC [CP466722]; conditions: top dose 16 µM; top dose inferred
Experimental: as §1

ABT-869 = compound: Cc1ccc(F)c(NC(=O)Nc2ccc(-c3cccc4[nH]nc(N)c34)cc2)c1 [ABT-869]; conditions: top dose 1.024 µM; top dose inferred
Experimental: as §1

GSK269962A = compound: CCn1c(-c2nonc2N)nc2cnc(Oc3cccc(NC(=O)c4ccc(OCCN5CCOCC5)cc4)c3)cc21 [GSK269962A]; conditions: top dose inferred
Experimental: as §1

MPS-1-IN-1 = compound: COc1cc(N2CCC(O)CC2)ccc1Nc1cc(Nc2ccccc2S(=O)(=O)C(C)C)c2cc[nH]c2n1 [MPS-1-IN-1]; conditions: top dose 20 µM; top dose inferred
Experimental: as §1

(5Z)-7-Oxozeaenol = compound: COc1cc(O)c2c(c1)/C=C/C[C@H](O)[C@H](O)C(=O)/C=C\C[C@H](C)OC2=O [(5Z)-7-Oxozeaenol]; conditions: top dose 10 µM; top dose inferred
Experimental: as §1

Cytarabine = compound: Nc1ccn([C@@H]2O[C@H](CO)[C@@H](O)[C@@H]2O)c(=O)n1 [Cytarabine]; conditions: top dose 2 µM
Experimental: as §1

ABT-888 = compound: C[C@]1(c2nc3c(C(N)=O)cccc3[nH]2)CCCN1 [ABT-888]; conditions: top dose 5 µM; top dose inferred
Experimental: as §1

KU-55933 = compound: O=c1cc(-c2cccc3c2Sc2ccccc2S3)oc(N2CCOCC2)c1 [KU-55933]; conditions: top dose 10 µM
Experimental: as §1

[1] = top dose 2.56 µM, screen: GDSC drug entry 154
[2] = top dose 2.5 µM, screen: GDSC drug entry 127
[3] = top dose 10 µM, screen: GDSC drug entry 1241, top dose inferred
[4] = top dose 5 µM, screen: GDSC drug entry 1192

Cell Line	AUC (QL-X-138)	IC50 (QL-X-138) [nM]	AUC (Thapsigargin)	IC50 (Thapsigargin) [nM]	AUC (Zibotentan)	IC50 (Zibotentan) [nM]	AUC (CHIR-99021; [1])	IC50 (CHIR-99021; [1]) [nM]	AUC (CMK)	IC50 (CMK) [nM]	AUC (CP466722)	IC50 (CP466722) [nM]	AUC (ABT-869)	IC50 (ABT-869) [nM]	AUC (GSK269962A; [2])	IC50 (GSK269962A; [2]) [nM]	AUC (MPS-1-IN-1)	IC50 (MPS-1-IN-1) [nM]	AUC (CHIR-99021; [3])	IC50 (CHIR-99021; [3]) [nM]	AUC (GSK269962A; [4])	IC50 (GSK269962A; [4]) [nM]	AUC ((5Z)-7-Oxozeaenol)	IC50 ((5Z)-7-Oxozeaenol) [nM]	AUC (Cytarabine)	IC50 (Cytarabine) [nM]	AUC (ABT-888)	IC50 (ABT-888) [nM]	AUC (KU-55933)	IC50 (KU-55933) [nM]
BC-3 (B-cell lymphoma, suspension)	0.551	865	0.203	4.83	0.975	> 20000	0.989	> 2560	0.952	> 4000	0.712	3680	0.986	> 1020	0.938	> 2500	0.833	11000												
CAL-148 (breast, suspension)	0.716	2470	0.91	> 512	0.99	> 20000	0.99	> 2560	0.956	> 4000	0.949	> 16000	0.988	> 1020	0.967	> 2500	0.944	> 20000												
COLO-829 (melanoma, adherent)	0.747	4730	0.427	18.4	0.979	> 20000	0.695	741	0.976	> 4000	0.889	> 16000	0.968	> 1020	0.793	1810	0.874	> 20000	0.892	> 10000	0.974	> 5000	0.699	2990						
CP67-MEL (melanoma, adherent)									0.922	> 4000																				
EW-12 (Ewing sarcoma, suspension)									0.97	> 4000					0.929	> 2500														
HCC1599 (breast, suspension)	0.525	754	0.69	118	0.981	> 20000	0.977	> 2560	0.774	1810	0.754	6110	0.982	> 1020	0.949	> 2500	0.837	16200												
HCC-33 (small cell lung carcinoma, adherent)	0.519	722	0.344	11.8	0.983	> 20000	0.985	> 2560	0.965	> 4000	0.85	12400	0.982	> 1020	0.916	> 2500	0.914	> 20000												
K-562 (chronic myeloid leukaemia, suspension)	0.625	1400	0.777	198					0.844	2730	0.73	4400			0.954	> 2500	0.917	> 20000			0.909	> 5000	0.678	1930						
KP-N-RT-BM-1 (neuroblastoma, semi-adherent)									0.733	1440																				
KP-N-YS (neuroblastoma, adherent)	0.585	1130	0.312	8.76	0.982	> 20000	0.975	> 2560	0.882	> 4000	0.783	7830	0.977	> 1020	0.95	> 2500	0.675	4150												
NCI-H128 (small cell lung carcinoma, suspension)									0.843	> 4000					0.968	> 2500														
NCI-H748 (small cell lung carcinoma, suspension)	0.383	278	0.527	38.6	0.948	> 20000	0.962	> 2560	0.876	> 4000	0.76	7110	0.972	> 1020	0.975	> 2500	0.911	> 20000												
NCI-H2171 (small cell lung carcinoma, suspension)	0.552	868	0.349	13	0.992	> 20000	0.991	> 2560	0.868	2860	0.82	7670	0.977	> 1020	0.762	785	0.943	> 20000												
NCI-H2196 (small cell lung carcinoma, adherent)	0.596	1190	0.895	> 512	0.981	> 20000	0.987	> 2560	0.987	> 4000	0.734	4840	0.964	> 1020	0.969	> 2500	0.951	> 20000												
NK-92MI (lymphoid neoplasm, suspension)			0.323	10.7			0.986	> 2560	0.793	1680	0.772	5740			0.897	> 2500														
SCC-3 (B-cell lymphoma, suspension)	0.575	973	0.55	42.2	0.995	> 20000	0.996	> 2560	0.8	1350	0.79	5100	0.994	> 1020	0.991	> 2500	0.463	1020												
SIG-M5 (acute myeloid leukaemia, suspension)	0.392	349	0.138	3.76	0.993	> 20000	0.994	> 2560	0.913	3190	0.671	2620	0.994	> 1020	0.976	> 2500	0.7	3870												
SU-DHL-1 (anaplastic large cell lymphoma, suspension)	0.452	490	0.995	> 512	0.997	> 20000	0.992	> 2560	0.892	2410	0.763	4360	0.996	> 1020	0.974	> 2500	0.317	451												
TALL-1 (T-cell lymphoblastic leukaemia, suspension)	0.899	> 10200	0.34	11.8	0.99	> 20000	0.99	> 2560	0.848	2770	0.839	10200	0.986	> 1020	0.947	> 2500	0.929	> 20000												
TE-441-T (rhabdomyosarcoma, adherent)	0.569	980	0.606	61.9	0.989	> 20000	0.989	> 2560	0.831	2390	0.812	8130	0.803	486	0.981	> 2500	0.878	19000												
VMRC-RCZ (kidney, adherent)	0.679	2220	0.347		0.983	> 20000	0.974	> 2560			0.769	7030	0.963	> 1020			0.959	> 20000	0.883	> 10000	0.811	3200	0.652	1780	0.838	1680	0.98	> 5000	0.963	> 10000
WM793B (melanoma, adherent)	0.943	> 10200	0.12	< 2	0.982	> 20000	0.92	> 2560			0.981	> 16000	0.979	> 1020			0.922	> 20000	0.832	7380	0.873	> 5000	0.481	550	0.676	412	0.982	> 5000	0.983	> 10000
WM1552C (melanoma, adherent)	0.951	> 10200	0.192	3.83	0.986	> 20000	0.987	> 2560			0.664	2860	0.982	> 1020			0.974	> 20000	0.97	> 10000	0.979	> 5000	0.286	154	0.922	> 2000	0.988	> 5000	0.957	> 10000
WM-115 (melanoma, adherent)	0.424	377	0.38	13.8	0.982	> 20000	0.897	> 2560			0.765	7120	0.948	> 1020			0.861	> 20000	0.843	9620	0.94	> 5000	0.489	580	0.881	> 2000	0.962	> 5000	0.958	> 10000
YAPC (pancreas, adherent)	0.902	> 10200	0.628	78.7	0.983	> 20000	0.984	> 2560			0.908	> 16000	0.982	> 1020			0.966	> 20000	0.981	> 10000	0.969	> 5000	0.882	> 10000	0.902	> 2000	0.98	> 5000	0.984	> 10000
huH-1 (liver, adherent)	0.984	> 10200	0.548	44.5	0.984	> 20000	0.984	> 2560			0.984	> 16000	0.98	> 1020			0.984	> 20000	0.947	> 10000	0.891	> 5000	0.915	> 10000	0.724	639	0.98	> 5000	0.934	> 10000

By IC50 is meant the dose at which the fit gives 50% viability; a fit beyond the top or the lowest dose is shown as a bound at that dose. AUC sums up the same curve from the lowest dose to the 256-fold higher top dose; it is 1 without any effect and falls as sensitivity rises. For some of these results: A top dose marked as inferred was calculated from the reported fits. For some of these results: Drugs with an entry number were screened twice under separate entries, and the two screens often disagree.
